Laboratory results taken from the RNAGym collection of RNA variant scans (doi:10.1093/nar/gkz1192).
Read counts are not given, so values of variants with three or more changes are uncertain.

B1: CPEB3 Ribozyme (parent)
chain: UAACAGGGGGCCACAGCAGAAGCGUUCACGUCGCAGCCCCUGUCAGAUUCUGGUGAAUCUGCGAAUUCUGCUGUAUAUCUC

Variants of: B1
Assay: self-cleavage, relative activity (ratio to wild type); higher = more cleavage; in vitro, sequencing
Summary of the method: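 Relative activity compares each variant's cleaved/total read fraction with that of the unmutated ribozyme. To get these fractions, barcoded CPEB3 ribozyme libraries from rounds of error-prone PCR were transcribed with T7 RNA polymerase for 5 hours at 37°C and then given 15 min of DNase I treatment before EDTA was added. The RNAs were reverse transcribed with template switching and sequenced on Illumina, and DNA sequencing linked barcodes to variants. A minimum of 5 reads applied, and three batches were averaged.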

Row | Variant | self-cleavage
1 | A15G A21U A28G U58C | 0.19
2 | A15G A28C U43A U54A U72C | 0.6
3 | A15G A28G A47U G63A A64G | 0.15
4 | A15G A28G A77G | 0.6
5 | A15G A28G C32U U58C | 0.37
6 | A15G A28G G33C C68A U78A | 0.12
7 | A15G A28G U31A | 0.51
8 | A15G A28G U41C U43C U67C U72A | 0.1
9 | A15G A28G U41C U66C U72A U76A | 0.21
10 | A15G A28G U41G A57G | 0.04
11 | A15G A28G U43G U49A U69G U76C | 0.2
12 | A15G A28G U74C | 0.85
13 | A15G A28G U76C | 0.27
14 | A15G A28U C40A | 0.12
15 | A15G A28U U31A U43C U54G G70C U78A | 0.04
16 | A15G A28U U49A A56G U58C G61A A77G | 0.31
17 | A15G A28U U49C A56G U69A | 0.08
18 | A15G A28U U67A U80A | 0.23
19 | A15G A35C A65G U66C | 0.14
20 | A15G A35C U60A | 0.18
21 | A15G A35G A45G A75U U78C | 0.91
22 | A15G A35G A45U U51C | 0.27
23 | A15G A35G C39U A77U | 0.47
24 | A15G A35G U41C U51A | 0.33

Row | Variant | self-cleavage
25 | A15G A35G U43A A65G | 0.42
26 | A15G A35G U48C | 0.26
27 | A15G A35G U54A A57G U60C | 0.37
28 | A15G A35G U69A U80C | 0.24
29 | A15G A35U A45G A47U U54A U72C | 0.2
30 | A15G A35U A65G U67C | 0.08
31 | A15G A35U A77G | 0.37
32 | A15G A35U C44U | 0.14
33 | A15G A35U U41C A45U U80C | 0.21
34 | A15G A35U U60C | 0.3
35 | A15G A35U U60C A65U | 0.16
36 | A15G A35U U69C | 0.18
37 | A15G A45G A47G A57U A77G | 0.08
38 | A15G A45G A77U | 0.59
39 | A15G A45G U54A U69A U72C | 0.38
40 | A15G A45G U60A | 0.33
41 | A15G A45G U60C | 1.13
42 | A15G A45G U78C | 0.49
43 | A15G A45U A56G U60A U67A A75G | 0.11
44 | A15G A45U U58C | 0.16
45 | A15G A47G A64U U67C | 0.2
46 | A15G A47G U54A A56C U72G U80C | 0.32
47 | A15G A47G U60C U76C | 0.29
48 | A15G A47G U66C U80C | 0.24

Row | Variant | self-cleavage
49 | A15G A47U U58C A75U | 0.22
50 | A15G A56G U72A | 0.48
51 | A15G A56U U58A | 0.15
52 | A15G A56U U66C | 0.08
53 | A15G A56U U67C C79G U80C | 0.15
54 | A15G A57G U72C | 1.23
55 | A15G A64C G70A U78C | 0.15
56 | A15G A64G U69C U78C | 0.13
57 | A15G A64G U74A | 0.76
58 | A15G A65U U78C | 0.28
59 | A15G C17A A21G C34U U41A A65U | 0.06
60 | A15G C23A A57U A77U | 0.04
61 | A15G C23A A64U U67C | 0.15
62 | A15G C23G G63U U69C U72C | 0.08
63 | A15G C23G U51C | 0.09
64 | A15G C23G U51C U74C | 0.04
65 | A15G C23U A56G C62U U66C U76C U78C | 0.06
66 | A15G C23U G53C | 0.16
67 | A15G C23U U25A U66C | 0.11
68 | A15G C23U U51C A65G U72C A77U | 0.22
69 | A15G C27A U31A A35U | 0.1
70 | A15G C27U U31C A45G C50U U60A U72C | 0.05
71 | A15G C29G C37U A64G | 0.2
72 | A15G C32U U58C | 0.16

Row | Variant | self-cleavage
73 | A15G C34A U43C U48C U67A | 0.08
74 | A15G C38A U41C G46U U48C C68A U69A | 0.18
75 | A15G C38A U43C G63U U66C A77G | 0.08
76 | A15G C38G U67A | 0.23
77 | A15G C38U U76C U80C | 1.13
78 | A15G C39A A47C | 0.18
79 | A15G C39G A47G U54C A57G C62A U69C | 0.02
80 | A15G C40U A45U U48C | 0.14
81 | A15G C40U U51C C62U G70A | 0.09
82 | A15G C40U U54C U78C | 0.54
83 | A15G C44U U54G | 0.13
84 | A15G C44U U60A | 0.25
85 | A15G C59G U60C | 0.15
86 | A15G C62U U66C U72A U76C | 0.14
87 | A15G C68U U80C | 0.46
88 | A15G G16C A47G A56U G61A | 0.1
89 | A15G G16U A21U A28U A65U | 0.11
90 | A15G G16U A64U U72A | 0.1
91 | A15G G19U A21U U26C U31A U58C U67A | 0.06
92 | A15G G19U A35U U74A | 0.39
93 | A15G G19U C40U U41C | 0.27
94 | A15G G19U U26A A45U U60C | 0.12
95 | A15G G22A C29U U69C | 0.04
96 | A15G G22A U49A | 0.16

Row | Variant | self-cleavage
97 | A15G G22A U49C | 0.14
98 | A15G G24A U25C C38G U43C A56G A65G | 0.2
99 | A15G G24A U26C G61U | 0.18
100 | A15G G24U U25C G52C U60C U69C | 0.1
101 | A15G G24U U51C | 0.29
102 | A15G G30A U41G U51C U76C A77G | 0.06
103 | A15G G30A U43C A57G | 0.28
104 | A15G G30A U49C A57G A75G A77G | 0.14
105 | A15G G30C C40U U41C U48C G52A | 0.12
106 | A15G G30U U54C A56U U66C U72A U80C | 0.05
107 | A15G G33A A35U U51C U76A A77G | 0.15
108 | A15G G33A C34U U41A A47G U76C | 0.04
109 | A15G G33A G36A C81A | 0.32
110 | A15G G33A U48A C50G U54A U74C | 0.05
111 | A15G G33A U49C | 0.08
112 | A15G G33C U54G U60C A65G U66C U72C | 0.06
113 | A15G G36A U41G U43C | 0.24
114 | A15G G42A U54A G55U A57G A75G U78C | 0.04
115 | A15G G42U U69C | 0.33
116 | A15G G46U A47U U48G U78C | 0.11
117 | A15G G55A U72C | 1.07
118 | A15G G55U A64G U78C | 0.44
119 | A15G G55U U60C U67G | 0.13
120 | A15G U25A A28G U48C A65G U80A | 0.09

Row | Variant | self-cleavage
121 | A15G U25A A57G | 0.66
122 | A15G U25A C59A A65G U67A | 0.04
123 | A15G U25A U26C C37U A45G U51A | 0.08
124 | A15G U25A U48C U60C | 0.03
125 | A15G U25C A28G U66C | 0
126 | A15G U25C A35G A65G U69C A77G | 0.2
127 | A15G U25C A35U U41A G42C A75G U78C | 0.05
128 | A15G U25C A56G A64G U72C | 0.19
129 | A15G U25C A64G A75C | 0.1
130 | A15G U25C A65G | 0.16
131 | A15G U25C C32U U72C U76C | 0.05
132 | A15G U25C C34U A35G U41G A45G | 0.04
133 | A15G U25C C37U U48A | 0.07
134 | A15G U25C C62A U76C | 0.27
135 | A15G U25C G30U U41C A56G | 0.08
136 | A15G U25C U26C | 0.29
137 | A15G U25C U31A A35U A56G | 0.07
138 | A15G U25C U31C A57G U78C | 0.17
139 | A15G U25C U41C G52C U74C | 0.09
140 | A15G U25C U48C A65G C68G U72C | 0
141 | A15G U25C U51A U58A U66C U78A | 0.17
142 | A15G U25C U51C | 0.12
143 | A15G U25C U60C | 0.44
144 | A15G U25C U60C A64G | 0.23

Row | Variant | self-cleavage
145 | A15G U25C U66C | 0.29
146 | A15G U25C U67G | 0.08
147 | A15G U25C U72A | 0.19
148 | A15G U25C U72C | 0.47
149 | A15G U25C U76C | 0.09
150 | A15G U25C U78C | 0.32
151 | A15G U25G C44U A56G | 0.26
152 | A15G U26A A28U U49A A56U A57G | 0.14
153 | A15G U26A A45G | 0.94
154 | A15G U26A G30A C39A U41C A57G U67C | 0.05
155 | A15G U26A U31A U41C C68A U72A | 0.08
156 | A15G U26A U48C U54A | 0.37
157 | A15G U26A U60C | 0.3
158 | A15G U26A U69C | 0.15
159 | A15G U26C A28G A77G | 0.11
160 | A15G U26C A28U A64G | 0.36
161 | A15G U26C A35G | 0.35
162 | A15G U26C A35U A64U U72C U78C | 0.12
163 | A15G U26C A45G A56U U66A | 0.11
164 | A15G U26C A45G U67A | 0.14
165 | A15G U26C A45U | 0.29
166 | A15G U26C A47G | 0.59
167 | A15G U26C A64U | 0.24
